Reference: PubChem BioAssay AID1468 (National Center for Advancing Translational Sciences (NCATS), 2008)
In all, about 280,000 compounds went through this assay and about 1,100 (0.39%) were called active. The inconclusive results got no clear call from the source; some entries with a clear call stand among them for comparison. Calls follow the shape of the dose curve; as a rule, active = well fitted inhibition curve with a large enough effect; inconclusive = small, poorly fitted or top-dose-only effect, or effect the other way; inactive = flat fitted curve, though single readings scatter. No potency is given beside an inconclusive call; the fits are too rough.

These compounds were tested against Microtubule-associated protein tau (Homo sapiens) (UniProt P10636) (assay: qHTS for Inhibitors of Tau Fibril Formation, Fluorescence Polarization). Conditions: K18 P301L tau heparin fibrillization, Alexa594 FP, 6 h; series mostly up to 57.7 µM.
Sequence of UniProt P10636 (P10636 whole entry, looked up, the tested form may be a part): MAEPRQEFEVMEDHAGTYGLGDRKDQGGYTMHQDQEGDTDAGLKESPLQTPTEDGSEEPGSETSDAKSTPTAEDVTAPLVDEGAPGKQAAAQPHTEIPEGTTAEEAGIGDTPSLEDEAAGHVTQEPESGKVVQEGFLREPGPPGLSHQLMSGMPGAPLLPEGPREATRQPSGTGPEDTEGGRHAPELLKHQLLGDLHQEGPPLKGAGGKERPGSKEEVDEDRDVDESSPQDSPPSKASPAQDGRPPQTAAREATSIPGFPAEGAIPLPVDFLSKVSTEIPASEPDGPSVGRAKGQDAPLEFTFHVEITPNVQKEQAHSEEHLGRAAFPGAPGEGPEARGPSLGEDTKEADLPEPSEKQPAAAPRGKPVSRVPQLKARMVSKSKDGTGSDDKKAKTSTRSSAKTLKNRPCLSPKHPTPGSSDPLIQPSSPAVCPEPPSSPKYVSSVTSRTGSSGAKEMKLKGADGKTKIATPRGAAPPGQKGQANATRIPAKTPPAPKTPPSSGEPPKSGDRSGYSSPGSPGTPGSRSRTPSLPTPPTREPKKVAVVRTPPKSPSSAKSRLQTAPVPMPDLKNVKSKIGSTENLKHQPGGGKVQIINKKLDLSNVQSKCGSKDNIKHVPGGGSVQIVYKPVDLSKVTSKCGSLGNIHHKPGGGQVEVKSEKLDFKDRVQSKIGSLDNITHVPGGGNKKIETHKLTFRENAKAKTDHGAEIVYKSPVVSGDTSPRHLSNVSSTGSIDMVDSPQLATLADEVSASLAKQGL
Summary of the method: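 Human tau K18 […] P301L fragment, 15 uM unlabeled plus 0.24 uM Alexa 594-labeled tau (final), with compound and 20 uM heparin in 100 mM sodium acetate pH 7; 6 hr at 37 C, then Alexa 594 FP read.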
% is scaled to controls: 0 for no effect and ±100 for the full control effect; potency is read from the fitted curve at half-maximal effect; tags tell the direction and shape of the fitted curve.
Also: nearly all actives have a fitted effect of over 55% in size.

SMILES | activity, negative = inhibition | Potency
COC(=O)C/C=C\[C@@H](C)[C@@H](/C=N\OC[C@@H](O)COCc1ccco1)NS(=O)(=O)c1ccc(C)cc1 | inactive: 2.71% [at 11.6 µM] | –
O=C(/C=C/c1ccc2c(c1)OCCO2)c1ccccc1 | – | inconclusive [activator, partial curve]
CC(=O)c1ccc(Oc2cc(C(F)(F)F)cnc2C(N)=O)cc1 | – | inconclusive [inhibitor, single point]
COc1ccc(C2C=C(Nc3ccccc3)C(=O)N2c2ccccc2)cc1OC (configuration not stated) | – | inconclusive [inhibitor, partial curve, poor fit]
COc1ccc(NC(=O)Cn2c(=O)n(Cc3ccccc3Cl)c(=O)c3cc(OC)c(OC)cc32)cc1 | – | inconclusive [inhibitor, single point]
CC(C)c1ccc(NC(=O)CN2C(=O)C3(SCC(=O)N3c3ccc(F)cc3)c3ccccc32)cc1 (configuration not stated) | – | inconclusive [inhibitor, single point]
Cc1ccc(-c2nn3c(C)nnc3s2)cc1NC(=O)CSc1ccc(Cl)cc1 | – | inconclusive [inhibitor, partial curve, poor fit]
COc1ccc(NC(=O)Cn2c(=O)n(Cc3ccco3)c(=O)c3sc4ccccc4c32)cc1Cl | – | inconclusive [inhibitor, partial curve, poor fit]
Cc1nc(CC(=O)Nc2ccc(C(N)=O)cc2)cs1 | – | inactive
Cc1ccc(-c2[nH]ncc2CNCCc2cnn(-c3ccccc3)c2)cc1C | – | inactive
CCCOc1ccc(CC2C(=O)Nc3ccc(Br)cc32)cc1 (configuration not stated) | – | inconclusive [inhibitor, partial curve]
CCCC(C1=C(O)CC(C)(C)CC1=O)C1C(=O)CC(C)(C)CC1=O (configuration not stated) | – | inconclusive [inhibitor, single point]
Nc1nc(N)c(S(=O)(=O)c2ccccc2)c(Nc2ccccc2)n1 | – | inconclusive [inhibitor, partial curve]
Cc1nn(C)cc1CNC(=O)Nc1ccc(Cl)c(Cl)c1 | – | inconclusive [inhibitor, partial curve]
COc1ccc(CN(C(=O)c2cc3ccccc3oc2=O)C2CCCCC2)cc1OC | – | inconclusive [inhibitor, single point]
O=c1cc(C(F)(F)F)oc2c1ccc1ccccc12 | – | inconclusive [inhibitor, single point]
Cc1ccc(NC(=O)c2oc3ccccc3c2NC(=O)C2CCCCC2)cc1 | – | inconclusive [inhibitor, partial curve]
CC(C)CO/N=C1/C[C@@H](O)[C@@H](O)[C@@H]2[C@@H]3C(=O)N(C(C)(C)C)C(=O)[C@H]3CC[C@@H]12 | inactive: -1.71% [at 11.6 µM] | –
COCCn1nnnc1CN1CCC(C)CC1 | – | inactive
O=C(Nc1ccc(F)c(F)c1)c1ccc(=O)n(Cc2ccc(F)cc2)c1 | – | inconclusive [inhibitor, partial curve]
COC(=O)c1cc(NC(=S)NCc2ccc(Cl)cc2)cc(C(=O)OC)c1 | – | active: 17.8 µM

SMILES | activity, negative = inhibition | Potency
CC1CCN(c2[nH]c(=S)c(C#N)c3c2CCCC3)CC1 | – | inactive
CC(C)C(NC(=O)CSc1ccc(Cl)cc1)C(C)C | – | inactive
Cc1ccn2cc(CNS(=O)(=O)c3ccc(Cl)s3)nc2c1 | – | inconclusive [inhibitor, single point]
O=C(Nc1cccc(Cl)c1)OCc1cn(-c2ccccc2)nn1 | – | inconclusive [inhibitor, partial curve]
Cc1ccc(OCCCN(C)C)c(Br)c1 | – | inactive
C=CCN1C=C2C(=O)C(C)(OC(=O)CCC(=O)OC)C(=O)C(Br)=C2C=C1c1ccc(OC)cc1 (configuration not stated) | – | inconclusive [inhibitor, partial curve]
O=C(NCc1nc2ccccc2[nH]1)C1=C[C@H](c2ccc(Br)cc2)C[C@H](OCc2ccc(CO)cc2)O1 | – | inconclusive [inhibitor, single point]
COC(=O)c1cc(NC(=O)Cc2ccc(OC)c(OC)c2)cc(C(=O)OC)c1 | – | inactive
COc1cc(/C=N\Nc2nc3ccccc3o2)cc(OC)c1OC | – | inactive
COc1cnc(-c2ccccn2)nc1Sc1ccc(F)cc1 | – | inactive
CN(C)C(=O)N1CCN(C(=O)N2CCOCC2)CC1 | – | inconclusive [activator, full curve, poor fit]
COc1ccccc1NC(=O)c1ccc(CN(c2cc(Cl)ccc2C)S(=O)(=O)c2ccccc2)cc1 | – | inconclusive [inhibitor, partial curve, poor fit]
CO/N=C/c1ccc(N2CCN(C(=O)c3cccc(C(F)(F)F)c3)CC2)c([N+](=O)[O-])c1 | – | inconclusive [activator, partial curve, poor fit]
CCOc1ccc2nc(/N=C/c3c(C)[nH]n(-c4ccccc4)c3=O)sc2c1 | – | inconclusive [inhibitor, single point]
CCCOC(=O)c1ccc(Oc2cn[nH]c2-c2ccc(OC)cc2O)cc1 | – | inconclusive [inhibitor, partial curve]
Cc1nn(-c2ccccc2)c2c1C(c1ccncc1)C(C#N)=C(N)O2 (configuration not stated) | – | inconclusive [inhibitor, single point]
CCC1CCCCN1S(=O)(=O)c1cc2c3c(c1)CC(=O)N3CCC2 (configuration not stated) | – | inconclusive [inhibitor, single point]
O=C(Nc1nccs1)c1cccc(NC(=O)c2ccco2)c1 | – | inconclusive [inhibitor, partial curve, poor fit]
CCC(C(=O)O)n1ccc2cc(S(=O)(=O)N3CCCCC3)ccc21 (configuration not stated) | – | inactive
O=C1c2cccc3cc(Br)cc(c23)C(=O)N1Nc1ccc(Br)cc1 | – | inconclusive [activator, partial curve, poor fit]
N#C/C(=C\c1ccc(-c2cccc([N+](=O)[O-])c2)o1)C(=O)Nc1nc(-c2cccs2)cs1 | – | inactive
